Results from PubChem BioAssay AID1645882 (National Center for Advancing Translational Sciences (NCATS), 2021).
About 120 (0.75%) of roughly 16,000 compounds were called active. Inconclusive results (about 4%) are left out. The call rests on the fitted dose curve; in most records, active means well fitted inhibition curve with a large enough effect; inconclusive means small, poorly fitted or top-dose-only effect; inactive means no such curve, though single readings can be large or run the other way. The list shows a part of the results.

target: Rap guanine nucleotide exchange factor 3 (Homo sapiens) (UniProt O95398); experiment: Validation qHTS for antagonist of cAMP-regulated guanine nucleotide exchange factor 3 (EPAC1); settings: EPAC1 Rap1B-BODIPY-GDP exchange, fluorescence; series mostly up to 150 µM; activity change, negative = inhibition: at the top concentration;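 further: plate controls were DMSO for no effect and ATA control for full effect; nearly all actives have a fitted effect of over 75% in size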
Procedure, shortened: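 Nucleotide exchange followed as fluorescence loss when BODIPY-GDP leaves Rap1B (480 nm excitation, 540 nm emission), read at 5 min intervals over 30 min. Reaction: 100 nM EPAC1, 250 nM RAP1B-BODIPY-GDP, 50 uM GDP; ATA and DMSO define normalization.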

Chain of UniProt O95398 (O95398 whole entry, looked up): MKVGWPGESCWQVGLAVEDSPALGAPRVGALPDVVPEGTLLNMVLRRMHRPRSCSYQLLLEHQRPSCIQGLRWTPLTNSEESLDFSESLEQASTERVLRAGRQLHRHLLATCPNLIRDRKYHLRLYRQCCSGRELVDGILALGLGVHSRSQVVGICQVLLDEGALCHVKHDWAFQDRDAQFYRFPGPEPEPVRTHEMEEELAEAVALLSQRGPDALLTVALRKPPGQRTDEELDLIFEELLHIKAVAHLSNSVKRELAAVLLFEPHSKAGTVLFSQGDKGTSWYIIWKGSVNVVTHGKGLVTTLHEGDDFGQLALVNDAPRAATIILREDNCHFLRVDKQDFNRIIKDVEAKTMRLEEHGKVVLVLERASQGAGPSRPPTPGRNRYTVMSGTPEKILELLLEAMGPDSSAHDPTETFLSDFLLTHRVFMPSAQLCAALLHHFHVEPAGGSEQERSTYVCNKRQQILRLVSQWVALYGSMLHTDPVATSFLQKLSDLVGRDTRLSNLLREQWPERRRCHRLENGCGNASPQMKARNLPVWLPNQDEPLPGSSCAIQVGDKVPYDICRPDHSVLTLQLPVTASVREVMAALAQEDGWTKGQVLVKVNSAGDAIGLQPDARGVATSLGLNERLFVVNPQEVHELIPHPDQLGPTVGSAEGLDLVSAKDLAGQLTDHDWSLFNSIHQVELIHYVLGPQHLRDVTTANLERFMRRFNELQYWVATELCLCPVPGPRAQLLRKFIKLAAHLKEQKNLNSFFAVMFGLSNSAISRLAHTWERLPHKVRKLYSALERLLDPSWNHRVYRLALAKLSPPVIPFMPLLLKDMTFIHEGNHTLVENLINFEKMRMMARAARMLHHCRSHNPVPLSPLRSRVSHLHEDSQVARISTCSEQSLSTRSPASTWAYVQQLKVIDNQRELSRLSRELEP

Activity change, negative = inhibition, inactive:
NC(=O)[C@@H]1CCCN1C(=O)c1cc(NC(=O)c2ccccc2)cc2ncn(C3CCCC3)c12 4.85%
FC(F)(F)c1ccccc1-c1nccc(N2CCNCC2)n1 -11.8%
CCCN1CCN(C(=O)c2cnn(-c3ncc4c(n3)-c3ccccc3CCC4)c2COC)CC1 8.9%
CN1C(CC(=O)c2ccccc2)CCCC1CC(O)c1ccccc1 (configuration not stated) 13.6%
Cc1cccc(CNc2ncncc2-c2ccccc2CN(C)C)c1 5.07%
O=c1c(-c2ccccc2)nc2cncnc2n1Cc1ccccc1Cl -10.5%
CCCOc1cc(N)ccc1C(=O)OCCN(CC)CC 29.8% [at 75.8 µM]
O=C(c1cccc(F)c1)N1CCC2(CC1)CN(c1ccccn1)C2 8.81%
O=C[C@H](O)[C@@H](O)[C@H](O)[C@H](O)CO 19.8%
CC1(C)OC2CC3C4CCC5=CC(=O)C=C[C@@]5(C)[C@]4(F)C(O)C[C@@]3(C)[C@]2(C(=O)CO)O1 (some centres not stated) 4.5%
COc1ccc(-n2c(=O)c(-c3cc(F)cc(F)c3)nc3cnc(N4CCOCC4)nc32)cc1 -5.61%
OC(Cn1cncn1)(Cn1cncn1)c1ccc(F)cc1F 16.5%
O=C(Nc1ccccc1)N1CC[C@@]2(CCCN(C(=O)c3csnn3)C2)C1 12.6%
C[C@@H]1[C@H](c2ccccc2)OCCS(=O)(=O)N1Cc1cccc(Cl)c1 -9.43%
O=C(Nc1ccccc1)Nc1ccccc1 3.59%
Cc1cnc(SCC2CCCO2)nc1C1CCCN(C(=O)C2=NNC(=O)CC2)C1 (configuration not stated) 17.6%
CSc1ncccc1C(=O)NCC1Cc2cc(-c3cnccn3)ccc2O1 (configuration not stated) 9.01%
O=C(c1cc(C(F)(F)F)cc(C(F)(F)F)c1)N1CCC[C@@]2(CCN(Cc3nccs3)C2)C1 -2.52%
COc1ccccc1OCC(O)CN1CCN(CC(=O)Nc2c(C)cccc2C)CC1 (configuration not stated)
O=[N+]([O-])c1cccc2cn[nH]c12
Cc1cc(C(=O)NCc2nc(-c3ccccc3NC(=O)C3CCCO3)oc2C)nc(C)n1 (configuration not stated) 3.75%
O=C(O)[C@@H](O)[C@H](O)[C@H](O)[C@@H](O)C(=O)O (tested in a mixture with another compound) 3.11%
COc1cc([C@@H]2c3cc4c(cc3[C@@H](O[C@@H]3O[C@@H]5CO[C@@H](C)O[C@H]5[C@H](O)[C@H]3O)[C@H]3COC(=O)[C@H]23)OCO4)cc(OC)c1O 6.44%
COc1ccc2[nH]c(CCc3nc4c(OC)c(OC)ccc4[nH]3)nc2c1OC 13.4%
COc1ncc2nc(-c3ccc(F)cc3)c(=O)n(Cc3cccs3)c2n1 8.55%
N#Cc1ccc(CN2CC3(CCN(C(=O)c4ccncc4)CC3)C2)cc1 14.2%
O=C([C@@H]1CC=C[C@@H]2CCN(C3CC3)C(=O)[C@@H]21)N1CCN(c2ccccc2)CC1 -0.694%
O=S1(=O)CCOC[C@H](CC2CCCCC2)N1Cc1ccccc1 14.7%
NC(=O)C(c1ccccc1)(c1ccccc1)[C@@H]1CCN(CCc2ccc3c(c2)CCO3)C1 13.9%
NC1(C(=O)O)C[C@H](C(=O)O)[C@H](C(=O)O)C1 (some centres not stated)
Cc1ccc2nc(SCC(=O)N3CCOc4ccc(CN5C[C@@H](C)O[C@@H](C)C5)cc4C3)[nH]c2c1 12.3%
Clc1ccc(/C=C/c2ccc3ccccc3n2)cc1Cl 5.55%
CCCNCC(O)COc1ccccc1C(=O)CCc1ccccc1 (configuration not stated)
CCNC(=O)c1sc2ncnc(NCCCN3CCOCC3)c2c1C 6.63%
CC(C)(C)CC(C)(C)c1ccc(OCCO)cc1 -1.44%
CC(=O)OCC(=O)[C@@]1(O)CCC2C3CCC4=CC(=O)CC[C@]4(C)C3C(=O)C[C@]21C (some centres not stated) -18.3%
CCC1(C2CCN(C(=O)c3ccc(C)c(C)c3)CC2)NC(=O)N(CCc2scnc2C)C1=O (configuration not stated) 14.3%
CCOC(=O)c1cccc(N)c1 19.9%
COc1ccc2ccccc2c1CN1CCC2(CCC(CNC(=O)c3ccccc3)O2)CC1 (configuration not stated) 5.02%
COc1cccc(CN2CCCC(c3nc(-c4ccncc4)ncc3-c3ccccc3)C2)c1O (configuration not stated) -11.2%
COc1ccccc1CN1CC[C@@]2(CCCN(C(C)=O)C2)C1 16.6%
COc1ccccc1CN1CC2(CCN(S(C)(=O)=O)CC2)C1 1.87%
CS(=O)(=O)CCCCN=C=S 13.1%
COCc1c(C(=O)N2CCC(N3CCCCC3)CC2)cnn1-c1ncc(C)c(-c2cccs2)n1 11.4%
COc1cc(=O)n2c(c1C(=O)N(C)Cc1nonc1C)CCN(Cc1cc(C)c(C)cc1C)CC2 10.6%
COc1ccc(C(OCCN2CCC[C@@H](C(=O)O)C2)(c2ccc(OC)cc2)c2ccc(OC)cc2)cc1 0.707%
CCNc1ncc2nc(-c3cn(C)c4ccccc34)c(=O)n(-c3ccc(OC)cc3)c2n1 29%
COCC(=O)Nc1cc(C(=O)N2CCCCC2c2nccn2C)cc2nc(-c3ccccc3)n(C)c12 (configuration not stated) 4.22%
N#Cc1cccc(NC(=O)N2CC[C@@]3(CCCN(S(=O)(=O)c4ccccc4)C3)C2)c1 -0.501%
CN1CCN(c2ncnc3ccc(-c4ccccc4Cl)cc23)CC1 12.4%
Clc1ccccc1-c1nc(NCc2cccnc2)c2ccccc2n1 8.59%
FC(F)(F)c1ccccc1-c1nc(N2CCNCC2)c2ccccc2n1 8.42%
N=C(N)c1ccc2cc(OC(=O)c3ccc(N=C(N)N)cc3)ccc2c1
O=C(O)CC/C=C\CC[C@H]1[C@@H](N2CCCCC2)[C@@H](O)C[C@@H]1OCc1ccc(-c2ccccc2)cc1 7.92%
CCCC(NC(C)C(=O)N1C(C(=O)O)CC2CCCCC21)C(=O)OCC (configuration not stated) 12.8%
O=C(NCc1cccnc1)c1cnn(-c2ncc3c(n2)-c2ccccc2CCC3)c1C1CC1 17.9%
CCNc1ncc2nc(-c3cc(F)cc(F)c3)c(=O)n(CCc3ccccc3)c2n1 7.98%
CCCCC/C=C\C/C=C\CCCCCCCC(=O)NC(C)c1ccccc1 (configuration not stated) 4.35%
COc1ccccc1CNc1cc(-c2cccnc2)ncn1 10%
COc1ccc(CN2CCC(=O)N([C@H](CO)c3ccccc3)CC2)cc1 -2.23%
Cc1nc(C)n(CC(=O)N2CCOc3ccc(CN4CCN(C)C[C@@H]4c4ccccc4)cc3C2)n1 -4.74%
CC(C)NCC(O)c1ccc2ccccc2c1 (configuration not stated)
COC(=O)c1c(OCc2ccccn2)cc(=O)n2c1CCN(Cc1cccc(C(F)(F)F)c1)CC2 19.2%
Clc1cccc(C(c2ccc3nc[nH]c3c2)n2ccnc2)c1 (configuration not stated) 16.8%
Cc1nc2[nH]c(=O)[nH]c(=O)c2[nH]1 23%
CC1=C[C@H](O)CC(C)(C)[C@H]1/C=C/C(C)=C/C=C/C(C)=C/C=C/C=C(C)/C=C/C=C(C)/C=C/C1=C(C)C[C@@H](O)CC1(C)C 7.87%
CC(=O)O[C@]1(C(C)=O)CC[C@H]2[C@@H]3C[C@H](C)C4=CC(=O)CC[C@]4(C)[C@H]3CC[C@@]21C 12.2%
N[C@@H](Cc1ccccc1)C(=O)O 11.1%
CC1CN(CC(=O)NCC2(N3CCOCC3)CCCC2)Cc2cc(Cl)ccc2O1 (configuration not stated) -15.9%
CC(=O)OCC(=O)[C@]1(O)C(OC(C)=O)CC2C3CCC4=CC(=O)C=C[C@@]4(C)[C@]3(F)C(O)C[C@]21C (some centres not stated) -0.671%
C[C@]12CCC(=O)C=C1CC[C@@H]1C2[C@@H](O)C[C@@]2(C)[C@H]1CC[C@]2(O)C(=O)CO (some centres not stated) 12.5%
COc1cccc(Cn2c(=O)c(-c3cc(F)cc(F)c3)nc3cnc(N(C)C)nc32)c1 16.7%
CC(=O)Nc1ccccc1-c1nc(CNC(=O)c2cccc(-n3cccn3)c2)c(C)o1 -0.113%
CCCCNC(=O)[C@@H]1Cc2ccccc2N1C(=O)[C@H](N)CC -2.63%
O=C(Cc1ccc[nH]c1=O)c1ccc(F)cc1 18.8%
COCCn1c(=O)c(-c2cc(F)cc(F)c2)nc2cnc(N3CCN(C)CC3)nc21 -0.675%
COc1ccc(-n2c(=O)c(-c3cccs3)nc3cnc(Oc4ccccc4)nc32)cc1 -17.9%
N[C@@H](CCCP(=O)(O)O)C(=O)O 1.53%
C=Cc1ccccc1 14.5%
O=P(O)(O)OC[C@H](O)CO 8.25%
CC(C)[C@H](O)CC[C@@H](C)C1CC[C@H]2C3CC=C4C[C@@H](O)CC[C@]4(C)C3CC[C@]12C (some centres not stated)
COc1ccccc1-c1cncnc1NCc1cccs1 6.51%
CN(C)c1nc(N(C)C)nc(N(C)C)n1
Cc1ccc(O)cc1
Cc1ccc(-c2ccnc(-n3ncc(C(=O)N(C)CC4CCCN(C)C4)c3C)n2)o1 (configuration not stated) 7.34%
c1cnc2[nH]ccc2c1 21.9%
COc1ccc2c(c1)[C@@]1(C)CCC[C@](C)(CO)C1CC2 (some centres not stated) -3.59%
Cc1nc2cnc(N3CCNCC3)nc2n(-c2ccccc2)c1=O 26.2%
CCOC(=O)[C@@H](C)N(Cc1ccc(OC)cc1)S(=O)(=O)N(Cc1ccccc1)[C@H](C(=O)OC)C(C)C -14.6%
CC(=O)Oc1ccc2c(c1)CCC1C2CC[C@]2(C)C(=O)CCC12 (some centres not stated) -14.4%
Nc1nc2n[nH]nc2c(=O)[nH]1
O=c1c(-c2cccc(F)c2)nc2cncnc2n1Cc1ccccc1Cl 2.1%
COc1ccc(CNc2nc(-c3ccoc3)nc3ccccc23)c(OC)c1 -29.1%
CS(=O)(=O)Nc1cccc(-c2ccc3ncnc(NCc4cccs4)c3c2)c1 6.86%
Cc1ncc2c(c1CNS(=O)(=O)N(C)C)CCN(C(=O)/C=C/c1ccccc1)C2 8.95%
O=C(NCC1(N2CCOCC2)CCCC1)c1cnn(-c2ncc3c(n2)-c2ccccc2CC3)c1C1CC1 5.27%
C[C@@H]1CN(Cc2ccc3c(c2)CN(Cc2cccc4c2OCO4)CCO3)C[C@H](C)O1 16.7%
c1ccc2cnccc2c1 17%
CCC1CN(CCNC(=O)c2ccsc2)Cc2cc(OC)ccc2O1 (configuration not stated) 14.3%
Fc1cccc(/C=N\N=C/c2cccc(F)c2)c1 5.5%
Cc1ccc(CNc2nc(CN3CCNC(=O)C3)nc3ccccc23)o1 17.3%
CCOC(=O)Oc1c(OC)cc(C(=O)O[C@@H]2C[C@@H]3CN4CCc5c([nH]c6cc(OC)ccc56)[C@H]4C[C@@H]3[C@H](C(=O)OC)[C@H]2OC)cc1OC
